± gives the standard deviation of the averaged measurements. The list shows a part of the results.
These sequences were tested on PfAP2-LT AP2 domain (GST-tagged) (assay: gcPBM binding intensity (ln(normalized median fluorescence intensity)); higher = stronger DNA binding).
Procedure, shortened: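 Plasmodium falciparum DNA-binding domains carrying a GST tag were expressed in E. coli and applied for 1 h, at about 25 μg on average, to an Agilent 4 × 180k array. The array held primer-extended double-stranded 36-bp intergenic genomic probes together with negative controls, and binding took place in 1× PBS with 1% milk, 0.2 mg/ml BSA, 0.5% salmon testes DNA and 0.03% Triton X-100. An Alexa488 anti-GST antibody detected bound protein, and the array was scanned at 488 nm. Binding intensity is taken as the highest Masliner-normalised natural-log median intensity across replicate spots of either probe orientation.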

Row | Sequence | gcPBM binding intensity (ln)
1 | TAATATATCAAATGAAGTACTCACATATACATAATA [XGTACX_site6051] | 8.76 ± 0.36
2 | TTTTTTAAATTATGTAGTACGATTCATTTTTTATAA [XGTACX_site1101] | 8.46 ± 0.47
3 | GGTATATATTTATAATGTACATATTCATATATATAA [XGTACX_site3291] | 8.57 ± 0.35
4 | CATCATCTTTTAAAGGTGCATAATAATATTGTTAAT | 8.57 ± 0.42
5 | ATGTTCTTTAAAACCACACACCCCCCAACCCCCCTC [CACACA_site2373] | 10.1 ± 0.13
6 | GTCTATTATTTTTGAAGTACAAAAATTTTAGTTAAA [XGTACX_site4708] | 8.44 ± 0.43
7 | AATATATTTAATCATACACACATTTATGTACCTATA [CACACA_site1718] | 9.11 ± 0.41
8 | TCGCCCTACAATTTGTTTATATATTAAATAAAATTT [CACACA_negctrl_site883] | 8.57 ± 0.51
9 | TGAAATTCCATAAAATGTACATATTAGTTTAATTCA [XGTACX_site4031] | 8.38 ± 0.43
10 | TTACAACATGAAAATGTGCACATATATATATATATA | 9.89 ± 0.057
11 | AAAAATAAATATATATGTACACATATGTATACAATA [XGTACX_site4692] | 8.84 ± 0.4
12 | GAAATAAATATAATATATATATATATATATATATGT [TGCATGCA_negctrl_site216] | 9.06 ± 0.28
13 | GGTATACACAGACATGCATGTAATTATATATAGGGA [TGCATGCA_site83] | 9.37 ± 0.54
14 | ATATAAATATATTGCACACACAATTATTATTATTAT [CACACA_site7147] | 9.24 ± 0.31
15 | AAGGATGATACAACTTGTACATATTTGCTTAATATA [XGTACX_site764] | 8.79 ± 0.53
16 | CATGTGCATATTAAATGTACATATATACATATATAC [XGTACX_site857] | 8.96 ± 0.29
17 | ATATAGGTATTTAATACACACAAAACTTTCATTCCA [CACACA_site7627] | 8.91 ± 0.41
18 | AAAGCTAATATTATATGTACTTATATATTTATATAT [XGTACX_site4474] | 8.81 ± 0.42
19 | AAATAAATGAAACACACACACACAAAAAAAAAAAAC [CACACA_site2625] | 10.2 ± 0.28
20 | ATATAAATCTACACCGCACACAAAAACAACAAATAT [CACACA_site2506] | 9.53 ± 0.3
21 | TATAATGTTAAATAATGTACATATTTTTTTTTTTTT [XGTACX_site4721] | 8.45 ± 0.38
22 | AACAAATTTTTTTTTCCTTTTTTTTTTTTACTTCAT [CACACA_negctrl_site1214] | 8.52 ± 0.61

Row | Sequence | gcPBM binding intensity (ln)
23 | ATAAACAAAGTTAAATGTACAAAGGGGTAAAAAAAA [XGTACX_site83] | 8.91 ± 0.57
24 | ACACAATTGAAATAGTGTACAAAATGTTGTTACATA [XGTACX_site8671] | 8.99 ± 0.52
25 | TTTTTTTTTCGGAAAAGTACAAAACTTTTTTATAAT [XGTACX_site4670] | 8.13 ± 0.35
26 | AAATAAATAATATGTAAACACACAAAAAATAAAAAT [CACACA_site8307] | 9.24 ± 0.52
27 | TTATTAACCAAACGCACATGCAAAATATATTATATA [TGCATGCA_site915] | 8.71 ± 0.45
28 | AGACTTTGTACAAACACACACATGAGCACAATATTA [CACACA_site6755] | 9.41 ± 0.36
29 | TAAAAAGTATATAAGAGTACACATATTTATAAATAT [XGTACX_site3084] | 8.79 ± 0.45
30 | TATATATCAATATGCACACACAAGAAGTAATTATAA [CACACA_site7487] | 9.39 ± 0.38
31 | AACAAAATTGAAGGAACACACATACAGATATATATA [CACACA_site4264] | 9.22 ± 0.4
32 | ATAGAAAAAATATACACACACTTATTAAATAAAAAT [CACACA_site7540] | 9.26 ± 0.37
33 | TAATAATTAATTAATATAATATTTTTTCATAATTAT [XGTACX_negctrl_site602] | 8.4 ± 0.39
34 | GTTTTTAAGAAAAACACACACTCCTGTTATTTTATA [CACACA_site3696] | 8.85 ± 0.42
35 | TTTTTTTTTTTCGGGGGTACTAATATATTATTAATA [XGTACX_site7809] | 9.37 ± 0.11
36 | ATATATATAACATATACACACGTTCATATATATATA [CACACA_site4416] | 9.05 ± 0.3
37 | TTACAAGTAAAAGGTACACACATTATATATACAAAT [CACACA_site8290] | 9.16 ± 0.44
38 | TAATTTTTATTTTATTTTATTTTTTTTTTTTTTATT [CACACA_negctrl_site1671] | 8.36 ± 0.61
39 | TCACATGGAAAAAAGTGTACATAATTATGTATAAAT [XGTACX_site2827] | 8.97 ± 0.38
40 | TATAAAAAATAAAAAGTTTAATGAATATTTCTTTTA [TGCATGCA_negctrl_site379] | 8.11 ± 0.66
41 | AATACAATTTCTAGCACACAAAATATTATTATAATT [CACACA_site3223] | 8.86 ± 0.45
42 | AAAAAAAAAAAAATCACACACAATATGAATTTATAG [CACACA_site601] | 8.97 ± 0.46
43 | TATAGAAGCGTTCACACACACACATACATACCCATA [CACACA_site4915] | 9.9 ± 0.43
44 | AAAAAACAATCTCATACACACTAGGGATTAATTATT [CACACA_site5051] | 8.89 ± 0.41

— the supplement of paper PMC11417369
